The record followed here is patent publication US20060177831A1 (published 2006).

The target of assay [1] is T1, c-MET extracellular domain (ECD)/Fc chimera (human, UniProt P08581 25-932).
T1 construct: Bought (R&D Systems, carrier free); also called c-MET ECD/Fc; c-MET-ECD/Fc fusion; not shown: immunoglobulin Fc domain
The assay can be described thus: binding ELISA on c-MET ECD/Fc, NiNTA-pure. In general terms: ELISA stands for enzyme-linked immunosorbent assay.

The target of assay [2] is T1, c-MET extracellular domain (ECD)/Fc …. As to the kind of experiment: AlphaScreen competition with bn-HGF for c-MET ECD/Fc, NiNTA-pure. In general terms: In Alpha technology, singlet oxygen from a donor bead excites a nearby acceptor bead.
Assay [3] has the same target. The assay can be described thus: AlphaScreen competition with bn-HGF for c-MET ECD/Fc, Q-pure.
Assay [4] has the same target. As to the kind of experiment: binding ELISA on c-MET ECD/Fc, Q-pure.
The target of assay [5] is c-MET on A549 human lung adenocarcinoma cells (human, UniProt P08581). The assay can be described thus: cell-based or functional assay.

B1: Anti-c-MET recombined Avimer RecM11 (dimer) (designed binder)
chain: CLANEFTCRSTGRCIPLQWVCDGDNDCEDSSDEKGCGDSHILPGLEASGGSCPASQFPCRSTGRCIPAEWVCDGDNDCEDSSDEASRGDSHILPFSTPGPSTSLQ
notes: Two A domains in one chain; Assayed protein also bears HA and 6His tags; also called C419
A word on the Kd: it is a measure of binding affinity in units of concentration. Lower therefore signals tighter binding. For orientation: IC50 means the concentration at which inhibition is half-maximal. On to B1, for which the Kd came out at 1.1 nM in assay [1] and 0.3 nM in assay [4]. Also, the IC50 in assay [2] and in assay [3] was 1 nM in each case.

B2: Anti-c-MET recombined Avimer monomer RecM07 (designed binder)
chain: CAADEFQCNSTGRCIPVNWLCDGDNDCEDSSDEENCSAPASEPPCSLSLQ
notes: Assayed protein also bears HA and 6His tags; also called C415
As for B2, the Kd was found to be 3.5 nM in assay [1] and 5.4 nM in assay [4]. The IC50 in assay [2] came to 1 nM; in assay [3] it was 13 nM.

B3: Anti-c-MET recombined Avimer monomer RecM02 (designed binder)
chain: CESNEFQCQSTSRCIPLQWVCDGDNDCEDSSDEASCGCPGPGATSAPAASLQ
notes: Assayed protein also bears HA and 6His tags; also called C410
On to B3, for which the results for the Kd in assay [1] and in assay [4] were 20.3 nM and 344 nM, respectively. Moreover, the IC50 in assay [2] and in assay [3] was 2 nM in each case.

B4: Anti-c-MET Avimer M34 (dimer) (designed binder)
chain: CPSSQFTCHSTRRCIPQTWVCDGDNDCEDGSDETDCPPHTSLQKASSGGSCLANEFRCNSTGRCIPRAWLCDGDNDCEDSSDEKDCKQHTSLQ
notes: Two A domains in one chain; Assayed protein also bears HA and 6His tags; also called C395
In assay [1], B4 came in with a Kd of 556 nM. The IC50 was determined as 3 nM in assay [2] and 2 nM in assay [3].

B5: Anti-c-MET Avimer monomer M39 (designed binder)
chain: CVSNEFPCQSTDRCIPRSWRCDGDNDCEDGSDEKDCSAPASEPPGSLSLQ
notes: Assayed protein also bears HA and 6His tags; also called C400
For the molecule B5, the Kd in assay [1] came out at 86 nM. In addition, the figures for the IC50 in assay [2] and in assay [3] were 35 nM and 85 nM, respectively.

B6: Anti-c-MET Avimer monomer M26 (designed binder)
chain: CQSFTEFECHSTGRCIPASWLCDGDNDCEDSSDESPANCATPAHTSLQ
notes: Assayed protein also bears HA and 6His tags; also called C387
Turning to B6, the values for the Kd in assay [1] and in assay [4] were 100 nM and 5.8 nM, respectively. The values for the IC50 in assay [2] and in assay [3] were 13 nM and 16 nM, respectively.

B7: Anti-c-MET recombined Avimer monomer RecM09 (designed binder)
chain: CESNEFQCRSTGRCIPVSWVCDGDNDCEDSSDEASCGDSHILPFGTPGPSTSLQ
notes: Assayed protein also bears HA and 6His tags; also called C417
Take B7: the Kd was determined as 42.2 nM in assay [1] and 51.6 nM in assay [4]. For the same molecule, the figures for the IC50 in assay [2] and in assay [3] were 19 nM and 52 nM, respectively.

B8: Anti-c-MET Avimer monomer M23 (designed binder)
chain: CAANEFQCHSTGRCIPLSWVCDGVNDCEDSSDETNCRAPTSEPKGSVSLQ
notes: Assayed protein also bears HA and 6His tags; also called C384
B8: in assay [1], binding was characterised by a dissociation constant (Kd) of 138 nM. For the same molecule, the IC50 in assay [2] turned out to be 43 nM.

B9: Anti-c-MET recombined Avimer RecM06 (dimer) (designed binder)
chain: CQASDQFECKSTGRCIPLAWRCDGDNDCEDGSDESPAICGRPGLEASGGSCRANEFQCHSTGRCIPASWLCDGDNDCEDGSDEASCGRPGPGGTSAPAASLQ
notes: Two A domains in one chain; Assayed protein also bears HA and 6His tags; also called C414
On to B9, for which the Kd in assay [1] turned out to be 0.4 nM; in assay [4], 0.7 nM. Also, the IC50 in assay [2] stood at 1 nM; in assay [3] it was 2 nM.

B10: Anti-c-MET Avimer monomer M22 (designed binder)
chain: CPSGEFQCRSTNRCIPETWLCDGDNDCEDGSDEESCTPPTSLQ
notes: Assayed protein also bears HA and 6His tags; also called C383
As to B10, the Kd in assay [1] came out at 66 nM. Moreover, the figures for the IC50 in assay [2] and in assay [3] were 34 nM and 57 nM, respectively.

B11: Anti-c-MET Avimer monomer M27 (designed binder)
chain: CVASEFTCRSTGRCIPESWRCDGDNDCEDSSDESPDLCSAPASEPPGSLQ
notes: Assayed protein also bears HA and 6His tags; also called C388
Regarding B11, binding in assay [1] was put at a Kd of 93 nM. Also, the figures for the IC50 in assay [2] and in assay [3] were 42 nM and 105 nM, respectively.

B12: Anti-c-MET Avimer monomer M28 (designed binder)
chain: CGSSEFQCHSTGRCIPENWVCDGDDDCEDSSDEKSCTSAAPTSLQ
notes: Assayed protein also bears HA and 6His tags; also called C389
Turning to B12, binding in assay [1] was put at a Kd of 31 nM. The IC50 was found to be 30 nM in assay [2] and 152 nM in assay [3].

B13: Anti-c-MET recombined Avimer RecM10 (dimer) (designed binder)
chain: CRANEFQCHSTGRCIPASWLCDGDNDCEDSSDEAPDLCASAAPTSLQASGLEASGGSCHAPTQFECRSTGRCIPAAWVCDGDNDCEDGSDESPAICGRPGLGLGATSAPAASLQ
notes: Two A domains in one chain; Assayed protein also bears HA and 6His tags; also called C418
B13: the Kd stood at 2 nM in assay [1] and 3.9 nM in assay [4]. The IC50 is 1 nM in assay [2] and 2 nM in assay [3].

B14: Anti-c-MET Avimer monomer M25 (designed binder)
chain: CESGEFQCHSTGRCIPASWLCDGDNDCEDGSDESQLCTAHTSLQ
notes: Assayed protein also bears HA and 6His tags; also called C386
In the case of B14, the dissociation constant Kd in assay [1] turned out to be 74 nM. Also, the values for the IC50 in assay [2] and in assay [3] were 11 nM and 29 nM, respectively.

B15: Anti-c-MET Avimer monomer M32 (designed binder)
chain: CQPNEFQCHSTGRCIPASWLCDGDNDCEDGSDESQLCTAHTSLQ
notes: Assayed protein also bears HA and 6His tags; also called C393
In assay [1], B15 displayed a Kd of 232 nM. The figures for the IC50 in assay [2] and in assay [3] were 20 nM and 69 nM, respectively.

B16: Anti-c-MET recombined Avimer RecM12 (dimer) (designed binder)
chain: CESNEFQCQSTSRCIPLTWRCDGDNDCEDSSDEKSCSAPASEPPGLEASGGSCPASEFTCRSTGRCISQGWVCDGDNDCEDSSDESPAICATTGPTSLQ
notes: Two A domains in one chain; Assayed protein also bears HA and 6His tags; also called RM12; C420
Turning to B16, the figures for the Kd in assay [1] and in assay [4] were 3.8 nM and 0.3 nM, respectively. Also, the IC50 amounted to 1 nM in assay [2] and 0.33 nM in assay [3]. Moreover, in assay [5], the “IC50, inhibition of HGF-induced proliferation of serum-starved A549-SC cells (tritiated thymidine)” value came to 0.32 nM.

B17: Anti-c-MET Avimer monomer M08 (designed binder)
chain: CQSSEFTCKSTERCIPLTWVCDGDNDCEDGSDEENCSQDPEFHKVSLQ
notes: Assayed protein also bears HA and 6His tags; also called C135
With B17, the Kd in assay [1] worked out at 130 nM. In assay [2], this molecule came in with an IC50 of 80 nM.
